Data from PubChem BioAssay AID504332 (National Center for Advancing Translational Sciences (NCATS), 2011).
The whole screen tested about 350,000 compounds, of which about 31,000 (8.9%) were called active. This list was built around the results that the source calls inconclusive (neither active nor inactive); the mix of calls is not that of the screen. Calls come from the whole dose curve; as a rule, active = well fitted inhibition curve with a large enough effect; inconclusive = small, poorly fitted or top-dose-only effect; inactive = no such curve, though single readings can be large or run the other way. Where the call is inconclusive, the potency comes from a doubtful curve fit.
% is set by controls: 0 for no effect and ±100 for the full control effect; potency is the fitted concentration of half-maximal effect; tags give direction and shape of the fitted curve.
Note: nearly all actives have a fitted effect of over 75% in size.

The compounds below were run against Histone-lysine N-methyltransferase EHMT2 (Homo sapiens) (UniProt Q96KQ7) (assay: qHTS Assay for Inhibitors of Histone Lysine Methyltransferase G9a). Conditions: G9a H3K9 monomethylation, AlphaScreen, 2 h; activity, negative = inhibition: at 59 µM (top of the series) unless noted.
Chain of UniProt Q96KQ7 (Q96KQ7 whole entry, looked up): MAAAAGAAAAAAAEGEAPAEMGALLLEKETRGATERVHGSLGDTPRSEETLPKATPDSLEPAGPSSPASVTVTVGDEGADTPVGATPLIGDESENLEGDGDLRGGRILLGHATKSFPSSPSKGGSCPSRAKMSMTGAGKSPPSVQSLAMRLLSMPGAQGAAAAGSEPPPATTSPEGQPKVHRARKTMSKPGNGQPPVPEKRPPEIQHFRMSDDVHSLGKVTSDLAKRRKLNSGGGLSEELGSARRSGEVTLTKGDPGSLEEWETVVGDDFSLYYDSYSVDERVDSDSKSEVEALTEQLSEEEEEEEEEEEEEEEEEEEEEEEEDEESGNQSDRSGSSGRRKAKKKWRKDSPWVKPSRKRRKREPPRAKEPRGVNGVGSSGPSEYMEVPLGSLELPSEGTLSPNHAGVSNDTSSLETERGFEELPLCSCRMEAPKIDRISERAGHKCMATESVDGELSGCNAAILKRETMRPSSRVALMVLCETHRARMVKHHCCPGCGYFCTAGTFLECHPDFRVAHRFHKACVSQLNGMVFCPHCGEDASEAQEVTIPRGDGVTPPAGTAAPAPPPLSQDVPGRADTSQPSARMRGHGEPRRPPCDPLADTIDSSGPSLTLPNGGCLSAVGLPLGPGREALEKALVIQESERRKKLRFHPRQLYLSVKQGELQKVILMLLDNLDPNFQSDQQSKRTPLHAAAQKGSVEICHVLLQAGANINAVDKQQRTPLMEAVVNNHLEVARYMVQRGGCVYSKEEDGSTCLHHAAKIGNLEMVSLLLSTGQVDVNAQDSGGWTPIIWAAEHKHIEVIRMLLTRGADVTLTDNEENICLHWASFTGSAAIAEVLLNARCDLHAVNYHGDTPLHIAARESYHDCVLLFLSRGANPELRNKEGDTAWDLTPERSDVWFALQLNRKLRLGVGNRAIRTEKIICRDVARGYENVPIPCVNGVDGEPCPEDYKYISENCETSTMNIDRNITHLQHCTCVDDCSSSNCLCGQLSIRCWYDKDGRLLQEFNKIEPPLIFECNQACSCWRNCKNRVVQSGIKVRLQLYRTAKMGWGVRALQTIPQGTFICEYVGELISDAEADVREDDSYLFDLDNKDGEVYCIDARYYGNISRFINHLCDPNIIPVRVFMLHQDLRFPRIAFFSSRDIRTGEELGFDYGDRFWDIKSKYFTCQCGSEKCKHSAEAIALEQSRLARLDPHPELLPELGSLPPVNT
Procedure, shortened: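 Compounds were preincubated with 20 nM G9a for 15 min, after which biotinylated H3K9 peptide (500 nM) and SAM (20 uM) started a 2 h room-temperature reaction. Monomethylated product was quantified by antibody-based AlphaScreen chemiluminescence.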
In the case of `Cn1nccc1C(=O)N1CCN(c2cccc(C(F)(F)F)c2)CC1`, the Potency is reported as active: 70.8 µM.
For `CCCn1cc2c(c1-c1cccc(C)c1)c(=O)n(C)c(=O)n2C`, the Potency was inconclusive: 3.16 µM [inhibitor, single point].
With `CCOc1cc(C2C(C(=O)OC)=C(C)NC3=C2C(=O)c2ccccc23)c(Br)cc1O` (stereo not drawn) the Potency was active: 15.8 µM.
In the case of `CC(=O)c1cccc(NC(=O)Cn2cc3c(n2)CCCC3)c1`, the Potency is reported as “inactive”.
`CC(C)NC(=O)Cn1nc(N2CCN(c3ccccc3)CC2)ccc1=O` was tested, and the Potency was “inactive”.
For `Cc1nnc(SCC(=O)Nc2ccc3c(c2)OCCO3)n1N`, the Potency was inconclusive: 12.6 µM [inhibitor, partial curve].
With `CN(C)N=Nc1ccc(S(=O)(=O)NC(=O)Cc2ccccc2)cc1` the Potency was inconclusive: 89.1 µM [inhibitor, single point].
With `Cc1nn(-c2ccccc2)c(N)c1C(c1ccc(C(C)C)cc1)c1c(C)nn(-c2ccccc2)c1N` the Potency was active: 12.6 µM.
In the case of `COC(=O)C1=C(C)NC(C)=C(C(=O)OC)C1c1ccc2ccccc2n1`, the Potency is reported as inconclusive: 79.4 µM [inhibitor, partial curve, poor fit].
For `COc1ccccc1N1CC(C(=O)Nc2nnc(SCC(=O)NCC3CCCO3)s2)CC1=O` (stereo not drawn), the Potency was active: 31.6 µM.
With `O=c1c(=O)n(Cc2c(F)cccc2Cl)ccn1Cc1ccccc1` the Potency was “inactive”.
For `CCN(CC)c1ccc(NC(=O)CN2C(=O)c3cccnc3Sc3ccccc32)c(C)c1`, the Potency was inconclusive: 8.91 µM [inhibitor, partial curve, poor fit].
With `CCOC(=O)N1CCN(C(=O)CNC2CCCCCCC2)CC1` the Potency was active: 31.6 µM.
In the case of `COCCN1Cc2cccc(C(=O)Nc3ccc(Cl)cc3Cl)c2C1=O`, the Potency is reported as inconclusive: 5.01 µM [inhibitor, single point].
For `CC[C@H](C)C1NC(=O)[C@H](CC(=O)O)NC(=O)c2cc([N+](=O)[O-])cc(I)c2NCCC(C(N)=O)NC1=O` (stereo partly drawn), the Potency was inconclusive: 89.1 µM [inhibitor, single point].
With `O=C(CNC(=O)c1cccs1)c1ccc([N+](=O)[O-])cc1` the Potency was inconclusive: 39.8 µM [inhibitor, single point].
For `COC(=O)c1[nH]c2ccccc2c1NC(=O)CN1CCCc2ccccc21`, the Potency was active: 44.7 µM.
In the case of `COc1nccnc1NS(=O)(=O)c1ccc(NS(=O)(=O)c2ccc(NC(C)=O)cc2)cc1`, the Potency is reported as “inactive”.
`CN(CC(=O)NCCc1ccc(Cl)cc1)S(=O)(=O)c1ccc2c(c1)c(=O)n(C)c(=O)n2C` was tested, and the Potency was “inactive”.
With `COc1ccc(N2CCN(C3C(=O)c4ccccc4N3C(C)=O)CC2)cc1` (stereo not drawn) the Potency was inconclusive: 25.1 µM [inhibitor, single point].
`CCOC(=O)c1cc(-c2ccc(OC)cc2)n(CCC(=O)NC2CCN(Cc3ccccc3)CC2)c1C` was tested, and the Potency was inconclusive: 89.1 µM [inhibitor, single point].
In the case of `Cc1ccc(-c2c3c(=O)n(C)c(=O)n(C)c3cn2-c2cc(C)ccc2O)cc1`, the Potency is reported as inconclusive: 2.24 µM [inhibitor, partial curve, poor fit].
`O=C(CSc1nnnn1-c1ccccc1)Nc1ncc2c(n1)CC(c1ccco1)CC2=O` (stereo not drawn) was tested, and the Potency was inconclusive: 31.6 µM [inhibitor, single point].
In the case of `Cc1cc(Cl)ccc1NS(=O)(=O)c1ccc2c(c1)CC(C)N2C(=O)C1CCC1` (stereo not drawn), the Potency is reported as “inactive”.
For `Cc1nn(Cc2ccc([N+](=O)[O-])cc2)c(=O)n1-c1ccc(F)cc1`, the activity, negative = inhibition was inconclusive: -53.6% [inhibitor] [at 12.7 µM].
`Cc1c(Cl)cccc1-n1ncc(C(=O)Nc2ccc(F)cc2F)c1C1CCN(C(=O)OC(C)(C)C)CC1` was tested, and the Potency was inconclusive: 35.5 µM [inhibitor, partial curve, poor fit].
`O=C(COC(=O)C1CC(O)CN1S(=O)(=O)c1ccc(Cl)cc1)c1ccccc1` (stereo not drawn) was tested, and the Potency was “inactive”.
In the case of `O=C(Nc1nc(-c2ccc(F)cc2)cs1)c1ccc(N2C(=O)CCC2=O)cc1`, the Potency is reported as inconclusive: 10 µM [inhibitor, partial curve, poor fit].
With `CC(C1CC2CCC1C2)n1c(-c2cccs2)n[nH]c1=S` (stereo not drawn) the Potency was inconclusive: 2.82 µM [inhibitor, partial curve, poor fit].
For `Cc1cccc(CCNC(=O)CC2C(=O)NCCN2Cc2ccc(F)c(F)c2)n1` (stereo not drawn), the Potency was inconclusive: 28.2 µM [inhibitor, partial curve].
For `CCNc1nc(NCC)n2c(SC(C(=O)Nc3cc(C)ccc3OC)c3ccccc3)nnc2n1` (stereo not drawn), the Potency was inconclusive: 35.5 µM [inhibitor, single point].
With `COc1cc2c3nnc(-c4ccc(F)cc4)c-3cn(Cc3cccc(C)c3)c2cc1OC` the Potency was “inactive”.
`Cn1cc(Br)c(C(=O)Nc2c(F)c(F)c(F)c(F)c2F)n1` was tested, and the Potency was “inactive”.
`O=C(COc1ccccc1)Nc1cc(S(=O)(=O)N2CCOCC2)ccc1N1CCCC1` was tested, and the Potency was inconclusive: 6.31 µM [inhibitor, single point].
`CC(C)CCn1c(SCC(=O)N2CC(=O)Nc3ccccc32)nc2scc(-c3cccs3)c2c1=O` was tested, and the Potency was “inactive”.
With `CC(C)c1onc(C(=O)N2CCCCCC2)c1[N+](=O)[O-]` the Potency was inconclusive: 89.1 µM [inhibitor, partial curve, poor fit].
In the case of `O=c1[nH]c(CSc2nnc(Cc3ccccc3)o2)nc2ccccc12`, the Potency is reported as inconclusive: 6.31 µM [inhibitor, single point].
`CCCOc1ccc2c(=O)c(N3C(=O)c4ccccc4C3=O)c(C)oc2c1` was tested, and the Potency was inconclusive: 79.4 µM [inhibitor, single point].
For `COc1cccc(Nc2nc(-c3ccc4c(c3)OCCO4)cs2)c1`, the Potency was inconclusive: 31.6 µM [inhibitor, single point].
For `CN(C)c1ccc(N2C(=NC(=O)c3ccccc3)SC3CS(=O)(=O)CC32)cc1` (stereo not drawn), the Potency was inconclusive: 56.2 µM [inhibitor, single point].
With `COc1cc(C(=O)NCCNc2nc3ccc(C)cc3cc2C#N)cc(OC)c1OC` the Potency was “inactive”.
For `O=C(CCc1ccccc1)N=C1SC2CS(=O)(=O)CC2N1c1ccccc1` (stereo not drawn), the Potency was “inactive”.
With `NC(=O)C1CCN(c2nc(-c3cc4ccccc4o3)cs2)CC1` the Potency was inconclusive: 5.01 µM [inhibitor, partial curve, poor fit].
